# Assay results from PMC4336329 (PLoS ONE, 2015).
# About 2,200 (0.71%) of roughly 310,000 compounds showed an effect of 50% or more. Effects have a minus sign here. The list shows a part of the results.
# Biological target: human ether-à-go-go-related gene (hERG) potassium channel (human, UniProt Q12809)
# Test: primary screen, population patch clamp on CHO cells stably expressing hERG
# human ether-à-go-go-related gene (hERG) potassium channel, sequence (Q12809 whole entry, looked up): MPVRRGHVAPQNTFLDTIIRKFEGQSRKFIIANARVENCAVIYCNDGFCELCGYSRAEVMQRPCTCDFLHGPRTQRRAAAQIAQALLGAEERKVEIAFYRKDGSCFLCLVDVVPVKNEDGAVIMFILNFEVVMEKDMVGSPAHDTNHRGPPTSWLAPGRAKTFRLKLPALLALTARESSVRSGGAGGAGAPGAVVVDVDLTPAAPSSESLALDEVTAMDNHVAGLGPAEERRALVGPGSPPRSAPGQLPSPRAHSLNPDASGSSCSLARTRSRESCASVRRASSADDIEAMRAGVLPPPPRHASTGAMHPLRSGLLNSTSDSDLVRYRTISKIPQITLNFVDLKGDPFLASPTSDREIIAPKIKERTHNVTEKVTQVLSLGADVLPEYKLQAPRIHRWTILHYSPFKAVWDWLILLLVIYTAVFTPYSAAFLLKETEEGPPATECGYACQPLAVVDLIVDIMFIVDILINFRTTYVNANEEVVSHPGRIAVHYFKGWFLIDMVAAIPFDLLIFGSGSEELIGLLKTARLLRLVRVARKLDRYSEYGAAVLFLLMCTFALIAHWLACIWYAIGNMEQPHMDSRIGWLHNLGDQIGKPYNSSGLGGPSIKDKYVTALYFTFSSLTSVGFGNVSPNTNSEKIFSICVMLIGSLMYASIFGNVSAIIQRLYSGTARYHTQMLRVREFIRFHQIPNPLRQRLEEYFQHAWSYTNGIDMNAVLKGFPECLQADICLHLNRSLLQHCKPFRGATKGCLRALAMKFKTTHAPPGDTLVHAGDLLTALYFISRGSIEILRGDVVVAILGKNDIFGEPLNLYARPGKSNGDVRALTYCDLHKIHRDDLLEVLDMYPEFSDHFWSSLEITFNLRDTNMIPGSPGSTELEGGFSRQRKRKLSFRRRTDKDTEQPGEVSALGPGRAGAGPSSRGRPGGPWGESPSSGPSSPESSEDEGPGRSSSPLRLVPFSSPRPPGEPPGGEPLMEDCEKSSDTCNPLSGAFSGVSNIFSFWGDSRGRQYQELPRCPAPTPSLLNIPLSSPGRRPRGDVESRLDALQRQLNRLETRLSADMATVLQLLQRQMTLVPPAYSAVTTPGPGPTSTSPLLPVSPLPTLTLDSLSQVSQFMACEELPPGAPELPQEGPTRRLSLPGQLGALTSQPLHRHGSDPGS
row,SMILES,"hERG current change (%, negative = inhibition) at 1uM"
1,CC(=O)n1c(=O)c2ccccc2c(=O)n1-c1ccccc1,6.47%
2,O=C1NC2(Nc3ccccc31)C(=O)Nc1ccc(Br)cc12 (stereo not drawn),5.54%
3,c1ccc(-c2cc(-c3ccccc3)[nH]n2)cc1,13.5%
4,CCSc1nc2ccccc2n1CC(=O)O,21.7%
5,O=C(Nc1ccccc1O)c1ccc2c(c1)C(=O)N(N1C(=O)c3ccccc3C1=O)C2=O,9.83%
6,O=C(O)C1CC(c2ccccc2F)=NO1 (stereo not drawn),10.9%
7,CC1(C)Cc2c(ccc3ccccc23)/C(=C/C#N)N1,23.1%
8,C/C=C/c1ccc(OCc2cc(=O)n3cc(C)ccc3n2)c(OC)c1,-5.19%
9,Cc1ccc(C(=O)N/C(N)=N/c2nc3ccccc3o2)cc1,9.08%
10,CN(C)C(=O)CC12CC3CC(C1)CC(CC(=O)N(C)C)(C3)C2,2.51%
11,CCCCCCC(=O)NC(Nc1ccc(S(N)(=O)=O)cc1)C(Cl)(Cl)Cl (stereo not drawn),3.92%
12,CCOc1ccc(C(CC(=O)O)NC(=O)C2c3ccccc3Oc3ccccc32)cc1 (stereo not drawn),10.4%
13,COc1ccc(C2(C)ON(c3ccccc3C(F)(F)F)C2=O)cc1 (stereo not drawn),17.6%
14,N#Cc1ccccc1NC(=O)CSc1nnc(-c2ccccc2O)n1-c1ccccc1,15%
15,O=C(NC1CCN(Cc2ccccc2)CC1)c1ccc(N2CC3CC(C2)c2cccc(=O)n2C3)c([N+](=O)[O-])c1 (stereo not drawn),26.7%
16,O=C1Cc2cc([N+](=O)[O-])ccc2N1c1c(Cl)cccc1Cl,7.64%
17,COc1ccc(CSc2nc3ccccc3c(=O)n2CCCN2CCOCC2)cc1F,-4.21%
18,Cc1cc2nccc(-c3ccccn3)n2n1,2.32%
19,S=C(Nc1ccc(Cl)cc1Cl)NC1CCN(Cc2ccccc2)CC1,0.0454%

row,SMILES,"hERG current change (%, negative = inhibition) at 1uM"
1,COc1ccc(C(CCNC(C)c2ccccc2)c2ccc(F)cc2)cc1 (stereo not drawn),11.4%
2,COc1ccc2ccc(=O)oc2c1CC=C(C)C,14%
3,COc1ccc(NC(=O)CSc2ccc(NC(C)=O)cc2)cc1S(=O)(=O)N1CCCCC1,7.16%
4,CC(/C=N/NC(=O)c1cc(-c2cccs2)[nH]n1)=C\c1ccccc1,3.6%
5,Oc1ccc(Br)cc1CNc1nccs1,15.7%
6,COC(=O)c1sc(N2C(=O)C(O)=C(C(=O)c3ccc(C)o3)C2c2ccc(OC)c(OC)c2)nc1C (stereo not drawn),8.5%
7,O=C(c1cc2cc([N+](=O)[O-])ccc2oc1=O)N1CCN(c2ncccn2)CC1,9.91%
8,Cc1cccn2c(=O)nc(SCC(=O)NC3CCCC3)nc12,4.84%
9,Cc1cccc(NC(=O)c2cccc(C(=O)Nc3cccc(C)n3)c2)n1,5.03%
10,Cc1cc(C)cc(Nc2nc3ccc(C)cc3n3cnnc23)c1,9.93%
11,CCc1ccc(C2=NN(CCC(=O)NC3CC3)C(=O)CC2)cc1,11.3%
12,C/C(CC(=O)Nc1ccc(Cl)c(C(F)(F)F)c1)=N\NC(=O)c1cnccn1,-13.6%
13,CS/C(=C\[N+](=O)[O-])Nc1ccccc1,21.3%
14,CCOC(=O)Nc1ccc2c(c1)N(C(=O)OCCN(C)C)c1ccccc1CC2.Cl,-14.5%
15,CN(C)CCOC1c2ccccc2CSc2ccccc21.O=CO (stereo not drawn),5.14%
16,COc1cc(C(=O)NCc2ccc3c(c2)OCO3)c([N+](=O)[O-])cc1OC,12%
17,C/C(=N\Nc1cccc2cccnc12)c1ccc(N)cc1,4.13%
18,COc1ccc2[nH]cc(CCNC(=O)c3ccccc3Cl)c2c1,12.1%
19,CC(=O)c1cccc(NC(=O)N[C@@H](CC(C)C)C(=O)O)c1,3.17%

row,SMILES,"hERG current change (%, negative = inhibition) at 1uM"
1,Fc1ccc(-c2csc(/C=C/c3ccc4c(c3)OCO4)n2)cc1,15.1%
2,O=C(CSc1ncn[nH]1)c1ccccc1,14.6%
3,Cc1cccnc1NC(=O)NC(=O)c1ccc(C(C)(C)C)s1,14.1%
4,COc1ccc(C=NC(CO)C(O)c2ccc([N+](=O)[O-])cc2)cc1 (stereo not drawn),14.6%
5,CCN(CC)CCOc1nc(C)nc2c1oc1ccccc12.Cl,-32%
6,O=C(Cn1cc(C(F)(F)F)ccc1=O)N/N=C/c1ccc(Cl)c(Cl)c1,-1.14%
7,CN(C)C(=O)c1ccc(NC(=O)c2cccc(S(=O)(=O)N3CCCCCC3)c2)cc1,1.1%
8,CN(C=[N+](C)C)c1cccc2c1C(=O)c1ccccc1C2=O.[Cl-],1.22%
9,CCN(CC)S(=O)(=O)c1cc(C(=O)N2CCc3ccccc32)ccc1Cl,8.71%
10,Cc1cc(NCc2ccco2)n2c(nc3ccccc32)c1C#N,9.3%
11,Cc1ccc(Cl)cc1N1CCN(Cc2nc3c(c(=O)[nH]c(=O)n3C)n2Cc2ccccc2F)CC1,10.6%
12,COc1cc(C(=O)NC(=S)NCc2ccco2)cc(OC)c1OC,3.84%
13,Cc1cc(NC(=O)Cn2cc([N+](=O)[O-])cn2)no1,12.8%
14,CCOC(=O)CC(=O)CSc1nc2ccccc2c(=O)n1-c1ccc(C(=O)NCCOC)cc1,11.6%
15,CC1(C)C(=O)OC(c2ccco2)C(C)(C)C1=O (stereo not drawn),-1.51%
16,CCN(c1ccccc1)S(=O)(=O)c1ccc(Cl)c(NC(=O)COC(=O)c2cc(O)c3ccccc3c2O)c1,16.3%
17,Cc1ccc(S(=O)(=O)c2nnn3c2nc(NCCCN2CCCC2=O)c2ccccc23)cc1C,2.37%
18,Cc1ccc(-c2nc3c(c(=O)c4ccccc4n3C)c(=O)n2Cc2ccco2)cc1,12.8%
19,O=S(=O)(c1cccc(C(F)(F)F)c1)N1CCC(CO)(CCCc2ccccc2)CC1,10.7%
